Hit rate of the full screen: of about 390,000 compounds, about 1,400 (0.36%) were called active. The inconclusive results got no clear call from the source; some entries with a clear call stand among them for comparison. Calls follow the shape of the dose curve; as a rule, active = well fitted inhibition curve with a large enough effect; inconclusive = small, poorly fitted or top-dose-only effect; inactive = no such curve, though single readings can be large or run the other way. Potencies beside an inconclusive call are fits to weak or partial responses and may not hold up.
Each compound was assayed against Flap endonuclease 1 (Homo sapiens) (UniProt P39748) (assay: qHTS Assay for the Inhibitors of Human Flap endonuclease 1 (FEN1).). Conditions: Recombinant FEN1 flap cleavage, fluorescence, 15 min; series mostly up to 114 µM.
How it was run: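 FEN1 at 10 nM preincubated with compounds 15 min at room temperature, then flap DNA substrate added at 50 nM final. Signal read at 0 and 15 min; concentration-response fitted with four-parameter Hill equation.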
Also: nearly all actives have a fitted effect of over 65% in size.
Potency is read from the fitted curve at half-maximal effect; tags tell the direction and shape of the fitted curve.

UniProt P39748, sequence (P39748 whole entry, looked up): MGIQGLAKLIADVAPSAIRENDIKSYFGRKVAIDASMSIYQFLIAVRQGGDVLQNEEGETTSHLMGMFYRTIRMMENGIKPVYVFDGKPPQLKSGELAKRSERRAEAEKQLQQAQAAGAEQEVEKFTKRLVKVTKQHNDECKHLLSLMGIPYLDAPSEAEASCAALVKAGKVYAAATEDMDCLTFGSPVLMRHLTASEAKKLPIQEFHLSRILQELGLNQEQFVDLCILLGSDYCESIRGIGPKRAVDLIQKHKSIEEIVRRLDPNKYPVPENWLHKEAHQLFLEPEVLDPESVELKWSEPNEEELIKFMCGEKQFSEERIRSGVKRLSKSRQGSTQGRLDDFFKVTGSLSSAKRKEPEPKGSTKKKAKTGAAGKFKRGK

| Compound | Potency |
| --- | --- |
| N#C/C(=C\c1ccc(-c2ccccc2C(=O)O)o1)c1nc2ccccc2[nH]1 | inconclusive: 50.1 µM [inhibitor, full curve, poor fit] |
| COc1ccc([C@H]2CC(=O)C=C(c3ccc(C)cc3)C2)cc1 | inconclusive: 50.1 µM [inhibitor, partial curve, poor fit] |
| CCOC(=O)c1ccc(S(=O)(=O)N2CCN(c3nc(-c4ccccc4)nc4ccccc34)CC2)cc1 | inactive |
| O=C1NN(c2ccccc2)C(=O)/C1=C/c1ccc(-c2ccc(C(=O)O)cc2)o1 | active: 50.1 µM |
| COc1cc(C=NNc2ccc(S(=O)(=O)Nc3ccccc3C(=O)O)cc2[N+](=O)[O-])ccc1O | active: 44.7 µM |
| CCOC(=O)Nc1oc2ccccc2c(=O)c1CN1CCOCC1 | inconclusive: 79.4 µM [inhibitor, partial curve, poor fit] |
| Cc1c(/C=N/NC(N)=O)c2ccccn2c1C(=O)c1ccc(F)cc1 | inconclusive: 89.1 µM [inhibitor, partial curve, poor fit] |
| COc1cc(-c2nc(C(=O)NCC3CCCO3)cc3c2[nH]c2ccccc23)cc(OC)c1OC (stereo unspecified) | inconclusive: 50.1 µM [inhibitor, partial curve, poor fit] |
| O=C1Cc2c([nH]c3ccc(Br)cc23)-c2ccccc2N1 | inconclusive: 4.23 µM [inhibitor, partial curve, poor fit] |
| OCCN=c1cc(-c2ccccc2)oc2ccc(Cl)cc12 | inconclusive: 56.2 µM [inhibitor, partial curve] |
| COc1ccc(S(=O)(=O)n2nc(OC(C)=O)cc2N)cc1 | active: 44.7 µM |
| COC(=O)c1ccc(N2NC(=O)/C(=C/c3ccc(-c4ccc(Cl)c(C(=O)O)c4)o3)C2=O)cc1 | inconclusive: 79.4 µM [inhibitor, partial curve] |
| Cc1coc2c1C(=O)C(=O)c1c-2ccc2c1CCCC2(C)C | inconclusive: 39.8 µM [inhibitor, single point] |
| Cn1c(/N=C/c2c(O)ccc3ccccc23)nc2ccccc21 | inconclusive: 20 µM [inhibitor, partial curve, poor fit] |
| O=C(CSc1nnc(SCc2ccc(Cl)cc2)s1)N/N=C/c1c[nH]c2ccccc12 | inconclusive: 50.1 µM [inhibitor, partial curve] |
| CC(=O)c1cccc(-n2nnnc2SCC(=O)Nc2cc(C)on2)c1 | inactive |
| Cc1cccc(OCc2nc(C#N)c(NCc3ccccc3Cl)o2)c1 | inactive |
| CCOC(=O)C1=C(O)c2ccccc2C(=O)/C1=C\c1ccc(C)cc1 | active: 50.1 µM |
| CCn1nc([N+](=O)[O-])c(C(C#N)c2nc3cc(C(F)(F)F)ccc3s2)c(Cl)c1=O (stereo unspecified) | inconclusive: 89.1 µM [inhibitor, partial curve, poor fit] |
| Cc1ccc(N(CCCCN2C(=O)c3ccccc3C2=O)C(=O)c2ccc(Cl)s2)cc1 | inconclusive: 39.8 µM [inhibitor, single point] |
| Cc1ccc(-c2csc(NCCn3c(-c4ccncc4)nc4cc(C(F)(F)F)ccc43)n2)cc1 | inconclusive: 79.4 µM [inhibitor, partial curve, poor fit] |
| Cc1cccc(-n2c(O)c(C=Nc3ccccc3O)c3ccccc3c2=O)n1 | inconclusive: 50.1 µM [inhibitor, partial curve, poor fit] |

| Compound | Potency |
| --- | --- |
| CCC(Sc1nc(-c2ccccc2)c(C#N)c(=O)[nH]1)C(=O)Nc1nnc(C)s1 (stereo unspecified) | inconclusive: 56.2 µM [inhibitor, partial curve] |
| CCOC(=O)c1ccc(CN(Cc2ccc(F)cc2)S(=O)(=O)c2cc(C(=O)Nc3cccc(C(F)(F)F)c3)ccc2F)cc1 | inactive |
| CCCN1C(C(=O)c2ccccc2)=C(OC(=O)COc2ccccc2)c2ccccc2S1(=O)=O | inconclusive: 39.8 µM [inhibitor, partial curve, poor fit] |
| CCCCn1c(=O)[nH]c(=O)c2c1nc(Cn1ncc(Cl)c(Cl)c1=O)n2CCC | inactive |
| Cc1ccn(-c2cc(O)c(-n3ccc(C)n3)cc2O)n1 | inactive |
| Cc1cc(C)c(NC(=O)CSc2nc3ccccc3nc2N2CCCCC2)c(C)c1 | inconclusive: 79.4 µM [inhibitor, partial curve] |
| OCCNc1ncnc2oc(-c3ccco3)c(-c3ccco3)c12 | inconclusive: 10 µM [inhibitor, full curve] |
| COc1ccc(C)cc1Nc1nc(N)c2ccccc2n1 | inconclusive: 89.1 µM [inhibitor, partial curve, poor fit] |
| NC(=O)CCCn1c(C(=O)c2ccc(Cl)cc2)c2ccc([N+](=O)[O-])cc2[n+]1[O-] | inconclusive: 89.1 µM [inhibitor, partial curve, poor fit] |
| CC(C)CS(=O)(=O)c1oc(-c2ccc(F)cc2)nc1S(=O)(=O)c1ccccc1 | inactive |
| Cc1ccc2nc(NC(=O)CSc3nccn3Cc3ccc(Cl)cc3)sc2c1 | inactive |
| CCS(=O)(=O)c1ccc2oc(=O)c(/C=C(\O)c3ccc(Cl)cc3)nc2c1 | inconclusive: 39.8 µM [inhibitor, full curve, poor fit] |
| CCCCCc1cc[n+](CC(=O)c2ccccc2)cc1 | inconclusive: 100 µM [inhibitor, single point] |
| O=C(O)c1ccc(N2Cc3ccccc3C2)cc1O | inconclusive: 39.8 µM [inhibitor, partial curve] |
| CCOc1ccc(N2C(=O)S/C(=C\c3ccc(O)c(OCC)c3)C2=O)cc1 | inconclusive: 100 µM [inhibitor, single point] |
| COc1cc(C(=O)Nc2ccccc2C2COC(=O)C2=N)cc(OC)c1OC (stereo unspecified) | inactive |
| CNC(=O)C1CCC(Cn2c(=O)c3sccc3n(CC(=O)NCc3cccc(OC)c3)c2=O)CC1 (stereo unspecified) | inactive |
| O=C(O)CC(C(=O)O)N1C(=O)/C(=C/C=C/c2ccco2)SC1=S (stereo unspecified) | inconclusive: 6.31 µM [inhibitor, full curve, poor fit] |
| CC12CCC(C/C1=N\N=C1\NC(=O)/C(=C\c3ccc(Cl)cc3)S1)C2(C)C (stereo unspecified) | inconclusive: 22.4 µM [inhibitor, partial curve, poor fit] |
| CCCCCCCC/C=C\CCCCCCCC(=O)NCCO | inconclusive: 8.44 µM [inhibitor, single point] |
| COc1ccc(/C=C\c2onc(C)c2S(=O)(=O)N2CCC(C(=O)Nc3cccc(Cl)c3)CC2)cc1 | inactive |
| c1csc(-c2nc3ccccn3c2NC2CCCCC2)c1 | inactive |

| Compound | Potency |
| --- | --- |
| COc1cc2[nH]c3c(N4CCN(c5ccc(Cl)cc5)CC4)ncnc3c2cc1OC | inconclusive: 39.8 µM [inhibitor, partial curve, poor fit] |
| Cc1ccc(CCNS(=O)(=O)c2ccc3c(c2)C(C)(C)C(=O)N3C)cc1 | inactive |
| COc1ccc(C(=O)C2CCN(CC(=O)Nc3ccc(OC)cc3OC)CC2)cc1 | inconclusive: 79.4 µM [inhibitor, partial curve, poor fit] |
| N#C/C(=C/c1ccc(N2CCOCC2)o1)c1nc2ccccc2[nH]1 | inconclusive: 79.4 µM [inhibitor, partial curve] |
| Cc1ccc(N(C)S(=O)(=O)c2ccc(-c3cc(C)no3)s2)cc1 | inconclusive: 89.1 µM [inhibitor, single point] |
| O=C(NCc1ccco1)c1cccc(NC(=O)c2ccccc2)c1 | inactive |
| CN1C(=O)c2ccccc2Sc2ccc(NC(=O)N3CCN(c4ccccc4F)CC3)cc21 | inactive |
| O=C(COC(=O)C1CC(=O)N(Cc2ccco2)C1)c1ccc(OC(=O)c2ccccc2)cc1 (stereo unspecified) | inconclusive: 79.4 µM [inhibitor, partial curve, poor fit] |
| COc1ccc(-c2cc3ccccc3oc2=O)cc1NC(=O)c1ccc([N+](=O)[O-])o1 | inactive |
| Oc1ccc(/C=N/N2CCCCC2)c(O)c1O | inconclusive: 44.7 µM [inhibitor, partial curve] |
| Cc1ccc(-c2csc(/C(C#N)=C/c3ccccc3Cl)n2)cc1 | inactive |
| O=C(O)CCNc1ccc(NCCC(=O)O)c2c1C(=O)c1ccccc1C2=O | active: 17.8 µM |
| Clc1cccc(Nc2ncnc3ccc(Br)cc23)c1 | inactive |
| CC(C)[C@H]1COCCS(=O)(=O)N1Cc1ccccc1-c1cccc(Cl)c1 | inconclusive: 79.4 µM [inhibitor, partial curve, poor fit] |
| COc1cc(/C=C2\C(=O)NN(c3ccccc3)C2=O)cc([N+](=O)[O-])c1O | inconclusive: 44.7 µM [inhibitor, partial curve] |
| CC(=O)c1cccc(Nc2cc(C)nc3nc(-c4ccccc4C)nn23)c1 | inactive |
| Cc1ccccc1Nc1nc(N)nc(COC(=O)c2ccc([N+](=O)[O-])o2)n1 | inconclusive: 31.6 µM [inhibitor, partial curve, poor fit] |
| O=C(Cc1cccs1)Nc1ccccc1F | inactive |
| COCCN1C=C2C(=O)C(C)(OC(=O)C3CCCC3)C(=O)C=C2C=C1c1ccsc1 (stereo unspecified) | inconclusive: 14.1 µM [inhibitor, partial curve, poor fit] |
| CCN1CCN(c2nc(Nc3ccc(NC(C)=O)cc3)nc(Nc3ccc(NC(C)=O)cc3)n2)CC1 | inconclusive: 56.2 µM [inhibitor, partial curve, poor fit] |
| COc1ccc(C(=O)COC(=O)c2ccc(Cl)nc2)cc1OC | inactive |
| Cc1cc(C)c2oc(=O)cc(CN3CCN(Cc4ccccc4)CC3)c2c1 | inconclusive: 2.82 µM [inhibitor, partial curve, poor fit] |
